Measured values from PubChem BioAssay AID463173 (ICCB-Longwood Screening Facility, Harvard Medical School, 2010).
About 4,300 (8.3%) of roughly 52,000 compounds were called active. Cut-off read from the data, not from the text of the source: active = survival mostly below about 52% (no sharp cut-off); inactive = mostly above about 56%. This is one part of the list.

Each compound was assayed on DeltatarO mutant (assay: S. aureus survival, RN4220 and DeltatarO strains – OD600, teichoic acid synthesis inhibitors, primary screen (AID 463173)). Conditions: S. aureus RN4220 wild type/DeltatarO growth, OD600, 18 h, stronger effect = lower value, screened at 18.75 µg/mL (by protocol).

Q: `COc1ccccc1Nc1nn2c(=O)c3ccc(C(=O)NCCC4=CCCCC4)cc3nc2s1` was tested. Which survival did it give?
A: inactive: 84%

Q: With `O=C(NCc1ccccc1F)C1CCN(c2nn3cc(-c4ccc(F)cc4)nc3s2)CC1` as the compound, how does the survival read?
A: inactive: 94%

Q: How did the survival turn out when `CN1c2ccc(Cl)cc2-c2nc(SCC(=O)NCc3ccccc3)ncc2S1(=O)=O` was run?
A: inactive: 69%

Q: Which survival does the source give for `N#Cc1cc[n+](CC(=O)c2cccs2)cc1` here?
A: inactive: 68%

Q: `COc1ccc(CCn2nnc(-c3ccc(NC(C)=O)c(Cl)c3)n2)cc1` was tested. Which survival did it give?
A: inactive: 95%

Q: Which survival does the source give for `Cc1ccc2cc(CN(C(=O)c3cccc(Cl)c3)c3ccccc3)c(=O)[nH]c2c1` here?
A: inactive: 74%

Q: For `CC1C(=O)N2CCCc3cc(S(=O)(=O)N4CCC(C(N)=O)CC4)cc1c32` (configuration not stated), which survival is on record?
A: active: 0%

Q: `COc1ccccc1NC(=O)c1oc2ccccc2c1NC(=O)C1CCCCC1` was tested. Which survival did it give?
A: active: 43%

Q: For `CCOC(=O)c1ccc(CN(Cc2ccccc2C)S(=O)(=O)c2ccc(F)c(C)c2)cc1`, which survival is on record?
A: inactive: 80%

Q: How did the survival turn out when `COCCNc1oc(/C=C/c2ccc(F)cc2)nc1C#N` was run?
A: inactive: 82%

Q: `Cc1cc(C)nc(Nc2ccc(O)cc2)n1` was tested. Which survival did it give?
A: inactive: 91%

Q: How did the survival turn out when `COc1ccc(Nc2ncnc3c2cnn3-c2ccc(C)cc2)cc1Cl` was run?
A: inactive: 128%

Q: Which survival does the source give for `CCCCOc1ccc(-c2nnn(C(C)(C)C(=O)O)n2)cc1` here?
A: inactive: 99%

Q: `CCC(=O)N1CCc2cc(Br)cc(S(=O)(=O)CCC(=O)NCc3cccc(OC)c3)c21` was tested. Which survival did it give?
A: inactive: 60%

Q: `Cc1ccc(Cn2c(C(=O)O)c(CNC3CCCC3)c3ccc(C)cc32)cc1` was tested. Which survival did it give?
A: inactive: 83%

Q: For `CCNC(=S)N1CCN(Cc2ccccc2)CC1`, which survival is on record?
A: inactive: 113%

Q: Which survival does the source give for `Cc1ccc(OCc2ccc(-c3nc(C#N)c(NCc4ccccc4Cl)o3)o2)cc1` here?
A: inactive: 100%

Q: For `O=C(Nc1ccccc1C(F)(F)F)N1CCC(CN2CCc3ccccc3C2)CC1`, which survival is on record?
A: inactive: 67%

Q: For `Cc1cc(C)cc(-n2c(SCC(N)=O)nc3c([nH]c4ccccc43)c2=O)c1`, which survival is on record?
A: inactive: 101%

Q: `COc1ccc(C)cc1NC(=O)C(Cc1ccccc1)NS(=O)(=O)c1cccs1` (configuration not stated) was tested. Which survival did it give?
A: inactive: 84%

Q: How did the survival turn out when `O=C(NC1CC(=O)N(c2cccc(F)c2)C1)c1cc2ccccc2o1` (configuration not stated) was run?
A: inactive: 99%

Q: With `COc1ccc(N2CCN(Cc3nnnn3CCc3ccccc3)CC2)cc1` as the compound, how does the survival read?
A: inactive: 64%

Q: For `CCCCn1c(=NC(=O)c2cc3ccccc3o2)c(C(=O)OCC)cc2c(=O)n3ccccc3nc21`, which survival is on record?
A: inactive: 107%

Q: For `O=C(Cn1c(=O)oc2cc(S(=O)(=O)N3CCCCC3)ccc21)NCc1ccc(Cl)cc1`, which survival is on record?
A: inactive: 66%

Q: With `Cc1ccn(C(=O)COc2ccc(Cl)cc2)n1` as the compound, how does the survival read?
A: inactive: 99%

Q: For `Cc1cc2nc3n(c2cc1C)CCCN3`, which survival is on record?
A: inactive: 51%

Q: For `O=C(Oc1ccc(Cl)cc1)c1cc(-c2ccc3c(c2)OCCO3)on1`, which survival is on record?
A: inactive: 116%

Q: How did the survival turn out when `Cc1ccc(-n2c(=O)c3c(cnn3C)n(CC(=O)Nc3ccccc3C)c2=O)cc1` was run?
A: inactive: 81%

Q: `Cc1ccc(CNC(=O)CCCn2c(=O)[nH]c3ccc(Br)cc3c2=O)cc1` was tested. Which survival did it give?
A: inactive: 87%

Q: Which survival does the source give for `COc1ccc2nc(C)cc(Nc3ccc(Cl)c(Cl)c3)c2c1` here?
A: inactive: 62%

Q: Which survival does the source give for `COc1ccc(NC(=S)N(Cc2ccco2)Cc2cc3cc(C)c(C)cc3[nH]c2=O)cc1` here?
A: active: 38%

Q: How did the survival turn out when `COc1cccc(-c2noc(COc3ccccc3Cl)n2)c1` was run?
A: inactive: 81%

Q: With `CC(C)Oc1ccc(CCN=C(N)N=C(N)N)cc1Cl` as the compound, how does the survival read?
A: inactive: 100%

Q: With `Cc1ccc(Cl)cc1NC(=O)CSc1nc2ccccc2nc1Cc1ccccc1` as the compound, how does the survival read?
A: inactive: 80%

Q: `COc1ccc(Cn2ccnc2SCC(=O)NCc2ccco2)cc1` was tested. Which survival did it give?
A: inactive: 75%

Q: For `COc1ccc(-c2onc(C)c2C)cc1S(=O)(=O)NCC1CCN(Cc2cc(C)ccc2C)CC1`, which survival is on record?
A: inactive: 100%

Q: Which survival does the source give for `CCn1c(=O)c2cc(C(=O)NCCCN3CCC(C)CC3)sc2c2ccccc21` here?
A: inactive: 101%

Q: With `COC(=O)c1ccccc1NC(=O)c1ccc2nc(CCc3ccccc3)oc2c1` as the compound, how does the survival read?
A: inactive: 131%

Q: For `CCc1ccccc1NC(=O)N1CCN(C(=O)c2nsc3ccccc23)CC1`, which survival is on record?
A: active: 17%

Q: `CCc1ccc(NC(=O)CC2C(=O)N(c3cccc(C)c3)C(=O)N2Cc2ccco2)cc1` (configuration not stated) was tested. Which survival did it give?
A: inactive: 118%

Q: Which survival does the source give for `CC1CCN(S(=O)(=O)c2ccc3c(ccn3CCC(=O)NCc3ccc(N(C)C)cc3)c2)CC1` here?
A: inactive: 94%

Q: With `O=C(Nc1ccc(F)c(Cl)c1)C1CCCN(c2cnccn2)C1` (configuration not stated) as the compound, how does the survival read?
A: inactive: 87%

Q: For `COc1ccc(CC2C(=O)Nc3ccc(Br)cc32)cc1OC` (configuration not stated), which survival is on record?
A: inactive: 82%

Q: With `COc1ccc(NC(=O)CCc2c(C)nc3nc(CNC(=O)OC(C)(C)C)nn3c2C)cc1OC` as the compound, how does the survival read?
A: inactive: 83%

Q: Which survival does the source give for `COc1ccc(S(=O)(=O)NCC(c2ccco2)N2CCN(c3ccc(F)cc3)CC2)cc1C` (configuration not stated) here?
A: inactive: 83%

Q: `CCOc1ccccc1C(=O)N(Cc1ccccc1F)C1CCS(=O)(=O)C1` (configuration not stated) was tested. Which survival did it give?
A: inactive: 75%

Q: `COC(=O)c1cn(C(=O)OC)c2ccccc12` was tested. Which survival did it give?
A: inactive: 92%

Q: Which survival does the source give for `Cc1ccc(-c2nnc3ccccc3c2C(=O)Nc2ccccc2F)cc1` here?
A: inactive: 68%

Q: Which survival does the source give for `Cc1ccc(NC(=O)Cn2c(=O)n(CCC(=O)NCc3ccccc3Cl)c(=O)c3ccccc32)cc1` here?
A: inactive: 107%

Q: With `COc1cc(NC(=O)C(CCSC)NS(=O)(=O)c2ccc3c(c2)oc(=O)n3C)cc(OC)c1` (configuration not stated) as the compound, how does the survival read?
A: inactive: 55%

Q: With `S=C1N(CN2CCOCC2)CCN1CN1CCOCC1` as the compound, how does the survival read?
A: inactive: 82%

Q: How did the survival turn out when `O=C(NCc1ccccn1)C1C2C=CC(C2)C1C(=O)Nc1ccc(F)cc1` (configuration not stated) was run?
A: inactive: 110%

Q: For `O=C(CCC1CCCC1)N1CCCC(c2nc(-c3ccc(F)cc3)no2)C1` (configuration not stated), which survival is on record?
A: inactive: 83%

Q: With `COc1ccc(Cl)cc1NC(=O)CSc1cn(CC(=O)N2CCCCCC2)c2ccccc12` as the compound, how does the survival read?
A: inactive: 80%

Q: `CCNc1nc(NC(C)(C)C)nc(Oc2ccc(=O)n(C)n2)n1` was tested. Which survival did it give?
A: inactive: 68%

Q: `O=C(NCCc1ccccc1)C(=O)NCC(c1ccc2c(c1)OCO2)N1CCOCC1` (configuration not stated) was tested. Which survival did it give?
A: inactive: 89%

Q: With `CCS(=O)(=O)N1CCc2cc(C(=O)NCCc3ccc(OC)cc3)ccc21` as the compound, how does the survival read?
A: inactive: 105%

Q: Which survival does the source give for `CC1CCN(S(=O)(=O)c2nnc(NC(=O)c3cccc(Br)c3)s2)CC1` here?
A: active: 31%

Q: Which survival does the source give for `COc1cc(NC(=O)CC(C)n2nc(C)cc2C)cc(OC)c1` (configuration not stated) here?
A: inactive: 93%

Q: `COc1ccc(-c2onc(C)c2C)cc1S(=O)(=O)NCC1CCN(Cc2cccc(F)c2)CC1` was tested. Which survival did it give?
A: inactive: 95%

Q: `CC1=C(c2ccc(Cl)cc2)S(=O)(=O)N=C1N1CCC(C(=O)NCc2ccccc2F)CC1` was tested. Which survival did it give?
A: inactive: 70%

Q: Which survival does the source give for `COc1ccc(CCNc2nc3c(-c4cccc(C)c4)nnn3c3ccccc23)cc1OC` here?
A: inactive: 122%

Q: For `Cc1ccc(-n2c(=O)c3c(c4cc(C)ccc4n3C)n(CC(=O)NCc3ccccc3)c2=O)cc1`, which survival is on record?
A: inactive: 74%

Q: Which survival does the source give for `CC(=O)Nc1ccc(NC(=O)C(C)C)nc1` here?
A: inactive: 74%

Q: How did the survival turn out when `COc1ccccc1NC(=O)CSc1nc(-c2ccccc2F)nc2cc(=O)[nH]n12` was run?
A: inactive: 71%

Q: For `COc1ccc(NC(=O)c2c(NCc3cccc(OC)c3)sc3c2CCCC3)cc1`, which survival is on record?
A: inactive: 86%

Q: For `O=C(CCC1N=C2c3ccccc3N=C(SCc3ccccc3F)N2C1=O)NCc1ccc(F)cc1` (configuration not stated), which survival is on record?
A: inactive: 69%

Q: For `O=C(CNS(=O)(=O)c1ccc(Cl)cc1)NC1CCCC1`, which survival is on record?
A: active: 67%

Q: `Cc1ccc2occ(CC(=O)N(Cc3ccc(C(C)C)cc3)C3CCS(=O)(=O)C3)c2c1` (configuration not stated) was tested. Which survival did it give?
A: inactive: 66%

Q: For `O=C(Nc1ccc(Cl)c(C(F)(F)F)c1)C1CCN(S(=O)(=O)c2cccc3nonc23)CC1`, which survival is on record?
A: inactive: 89%

Q: How did the survival turn out when `Cc1cccn2c(=O)c(C(=O)NCCc3ccc(S(N)(=O)=O)cc3)c(O)nc12` was run?
A: inactive: 51%

Q: Which survival does the source give for `Cc1ccccc1CSc1cn(CC(=O)N2CCCCCC2)c2ccccc12` here?
A: inactive: 68%

Q: For `O=C(CCOc1ccccc1)N(Cc1cccnc1)c1nc2c(F)cccc2s1`, which survival is on record?
A: inactive: 71%

Q: How did the survival turn out when `CCCCn1c(NCc2ccc(N(C)C)cc2)nc2ccccc21` was run?
A: inactive: 52%

Q: `O=C(O)Cn1ccc2cc(S(=O)(=O)N3CCCCCC3)ccc21` was tested. Which survival did it give?
A: inactive: 85%

Q: For `COc1ccc(CNC(=O)COCc2cc(-c3cccs3)on2)cc1`, which survival is on record?
A: inactive: 107%

Q: How did the survival turn out when `COc1ccc(S(=O)(=O)N(CC(=O)Nc2cccnc2)c2ccc(Cl)cc2)cc1` was run?
A: active: 30%

Q: With `COc1ccc(CNC(=O)Cn2c(=O)cc(-c3ccccc3)c3c(C)nn(C)c32)cc1` as the compound, how does the survival read?
A: inactive: 67%

Q: With `COc1ccc(NC(=O)Cn2c(=O)ccc3cc(S(=O)(=O)N4CCCC4)ccc32)cc1Cl` as the compound, how does the survival read?
A: inactive: 106%

Q: `Cc1cccc(N2CCN(C(=O)Cn3nc(Cc4cccnc4)c4ccccc4c3=O)CC2)c1C` was tested. Which survival did it give?
A: inactive: 81%

Q: Which survival does the source give for `FC(F)(F)c1cccc(N2CCN(CCN3CCOCC3)CC2)c1` here?
A: inactive: 85%

Q: With `Clc1cccc(-n2ncc3c(NCCCn4ccnc4)ncnc32)c1` as the compound, how does the survival read?
A: inactive: 84%

Q: With `CCc1ccc2oc(C(=O)Nc3ccccc3C(=O)OC)cc(=O)c2c1` as the compound, how does the survival read?
A: inactive: 57%

Q: With `O=C(O)C1CCCN1S(=O)(=O)c1ccc2ccccc2c1` (configuration not stated) as the compound, how does the survival read?
A: inactive: 112%

Q: `CC(C)(C)c1ccc(-c2nc(SCC(=O)Nc3ccccc3F)n3[nH]c(=O)cc3n2)cc1` was tested. Which survival did it give?
A: inactive: 95%

Q: With `CCCn1c(CCC(=O)Nc2ccc(OCC)cc2)nc2cccnc21` as the compound, how does the survival read?
A: inactive: 93%

Q: With `COc1ccc2nc(SCC(=O)Nc3ccc(N4CCCC4)cc3)c(C#N)cc2c1` as the compound, how does the survival read?
A: inactive: 89%

Q: With `CC1CCc2c(sc(NC(=O)C3c4ccccc4Oc4ccccc43)c2C#N)C1` (configuration not stated) as the compound, how does the survival read?
A: inactive: 51%

Q: With `Cc1ccc(-n2c(=O)c3c(C)c(C)sc3n(CC(=O)NCc3ccccc3)c2=O)cc1C` as the compound, how does the survival read?
A: inactive: 80%

Q: How did the survival turn out when `CCOC(=O)c1c(C)oc2nc(C)nc(NCc3ccc(F)cc3)c12` was run?
A: inactive: 88%

Q: With `COc1ccc(C2=CC(c3ccccc3Cl)n3nc(-c4ccc(Cl)cc4)nc3N2)cc1` (configuration not stated) as the compound, how does the survival read?
A: inactive: 53%

Q: How did the survival turn out when `COC(=O)c1scc(-c2ccc(C)cc2)c1S(=O)(=O)N1CCN(c2ccc(C(C)=O)cc2)CC1` was run?
A: inactive: 77%
